Consider two molecules from patent US20220025050A1 (OSE IMMUNOTHERAPEUTICS, published 2022).

In this test the target is T1, recombinant hPD1 (Sino Biologicals, reference 10377-H08H) (human, UniProt Q15116 part only).
T1 construct: also called Human recombinant PD-1 protein; PD1-His recombinant protein
Description: ELISA: hPD-1 immobilized, anti-human Fc peroxidase. A general note: ELISA stands for enzyme-linked immunosorbent assay.

T1 sequence (Q15116 25-167 limits assumed): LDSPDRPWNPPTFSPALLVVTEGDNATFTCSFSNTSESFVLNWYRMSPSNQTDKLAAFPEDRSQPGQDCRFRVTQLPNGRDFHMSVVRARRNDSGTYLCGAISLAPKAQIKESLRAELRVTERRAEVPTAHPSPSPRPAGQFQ

B1: Humanized anti-PD1 (VH SEQ ID NO:19, VL SEQ ID NO:28) fused to IL-7 on heavy and light chains (other)
heavy: QIQLVQSGSELKKPGASVKVSCKASGYTFTHYAMNWVRQAPGQGLEWMGWINTNTGEPTYAQGFTGRFVFSLDTSVSTAYLQISSLKAEDTAVYYCAREREPGMDTWGQGTLVTVSSASTKGPSVFPLAPCSRSTSESTAALGCLVKDYFPEPVTVSWNSGALTSGVHTFPAVLQSSGLYSLSSVVTVPSSSLGTKTYTCNVDHKPSNTKVDKRV[human IgG4 Fc with S228P L445P (EU numbers) omitted here]GGGGSGGGGSGGGGSDCDIEGKDGKQYESVLMVSIDQLLDSMKEIGSNCLNNEFNFFKRHICDANKEGMFLFRAARKLRQFLKMNSTGDFDLHLLKVSEGTTILLNCTGQVKGRKPAALGEAQPTKSLEENKSLKEQKKLNDLCFLKRLLQEIKTCWNKILMGTKEH
light: DVVMTQSPLSLPVTLGQPASISCRSSQSLVHANTNTYLEWYQQRPGQSPRLLIYKVSNRFSGVPDRFSGSGSGTDFTLKISRVEAEDVGVYYCFQGTHVPNTFGQGTKLEIKRTVAAPSVFIFPPSDEQLKSGTASVVCLLNNFYPREAKVQWKVDNALQSGNSQESVTEQDSKDSTYSLSSTLTLSKADYEKHKVYACEVTHQGLSSPVTKSFNRGECGGGGSGGGGSGGGGSDCDIEGKDGKQYESVLMVSIDQLLDSMKEIGSNCLNNEFNFFKRHICDANKEGMFLFRAARKLRQFLKMNSTGDFDLHLLKVSEGTTILLNCTGQVKGRKPAALGEAQPTKSLEENKSLKEQKKLNDLCFLKRLLQEIKTCWNKILMGTKEH
For B1, the EC50 was found to be 3.9 ng/mL.

B2: Chimeric anti-PD1 fused to IL-7 on heavy and light chains (other, not shown: small tags and cut ends)
heavy: QIQLVQSGPELKKPGETVKISCKASGYTFTHYGMNWVKQAPGKGLKWMGWINTNTGEPTYAEEFKGRFAFSLETSASAAFLQINNLKNEDTATYFCAKEREPGMDSWGQGTSVTVSSASTKGPSVFPLAPCSRSTSESTAALGCLVKDYFPEPVTVSWNSGALTSGVHTFPAVLQSSGLYSLSSVVTVPSSSLGTKTYTCNVDHKPSNTKVDKRV[human IgG4 Fc with S228P L445P (EU numbers) omitted here]DCDIEGKDGKQYESVLMVSIDQLLDSMKEIGSNCLNNEFNFFKRHICDANKEGMFLFRAARKLRQFLKMNSTGDFDLHLLKVSEGTTILLNCTGQVKGRKPAALGEAQPTKSLEENKSLKEQKKLNDLCFLKRLLQEIKTCWNKILMGTKEH
light: DVLLTQTPLSLPVSLGDQASISCRSSQNIVHANGNTYLEWYLQKPGQSPKLLIYKVSNRFSGVPDRFSGSGSGTDFTLKITRVEAEDLGVYYCFQGSHVPNTFGGGTKLEIKRTVAAPSVFIFPPSDEQLKSGTASVVCLLNNFYPREAKVQWKVDNALQSGNSQESVTEQDSKDSTYSLSSTLTLSKADYEKHKVYACEVTHQGLSSPVTKSFNRGECDCDIEGKDGKQYESVLMVSIDQLLDSMKEIGSNCLNNEFNFFKRHICDANKEGMFLFRAARKLRQFLKMNSTGDFDLHLLKVSEGTTILLNCTGQVKGRKPAALGEAQPTKSLEENKSLKEQKKLNDLCFLKRLLQEIKTCWNKILMGTKEH
B2: the concentration for a half-maximal effect (EC50) worked out at 2.11 ng/mL.

By EC50 is commonly meant the midpoint of the concentration-response curve.
